Structures are written as SMILES. The list shows a part of the results. Many values rest on one well or one pass, so single values are uncertain.

This assay has as its system Candida albicans DPL-15. Put plainly: growth (OD600) after compound treatment (apparently relative to screen median) (relative growth (fraction; screen median 1.02)); DPL-15 is a caspofungin-resistant clinical isolate; higher = more fungal growth (less antifungal activity). The note with it: 25 µM; RPMI 1640; 48 h; 30 °C.
Turning to `C#CCCC(=O)NCc1ccc(O)c(OC)c1`, the growth was determined as 1.12.

For `O=c1c(O)c(-c2ccc(Br)cc2)n(CC2CC2)c2cccc(F)c12`, the growth stood at 0.561.

Take `CCN(CC)CCCNC1=N[C@@H](c2cccc(F)c2)C(C(=O)OC)=C(C)N1Cc1ccccc1`: the growth was 1.07.

`Cc1ccc(C2C3=C(NCCN=C3C(C)C)C(=O)N2c2ccccc2)cc1` (configuration not stated): the growth was determined as 1.03.

On to `COc1ccc([C@@]23Oc4cc(OC)cc(OC)c4[C@]2(O)c2nc(C)[nH]c(=O)c2[C@H]3c2ccccc2)cc1`, for which the growth worked out at 1.1.

As to `CC(C)(C)NS(=O)(=O)OC[C@H]1O[C@@H](n2cnc3c(N(C(=O)OC(C)(C)C)C(=O)OC(C)(C)C)ncnc32)[C@@H]2OC(C)(C)O[C@@H]21`, the growth is 0.831.

Consider `COc1ccc([C@@]23Oc4cc(OC)cc(OC)c4[C@]2(O)c2nc(N4CCOCC4)[nH]c(=O)c2[C@H]3c2ccccc2)cc1`, for which the growth worked out at 0.897.

On to `COc1cc2c(cc1OC)CN(CCc1ccc(NC(=O)COc3ccccc3[N+](=O)[O-])cc1)CC2`, for which the growth came out at 1.12.

For `COC(=O)C1=C(C)N(Cc2ccccc2)C(=S)NC1c1ccccc1F` (configuration not stated), the growth stood at 0.877.

As for `O=Cc1c(O)c(C=O)c(O)c(C(c2ccccc2)N2CCCC2)c1O` (configuration not stated), the growth is 0.954.

As to `CC(=O)Oc1cc(OC(C)=O)c2c(=O)c3c(CC=C(C)C)cc(OC(C)=O)c(OC(C)=O)c3oc2c1`, the growth came to 0.991.

In the case of `COc1ccc(COc2c(-c3ccccc3)oc3ccccc3c2=O)cc1`, the growth was determined as 0.822.

Regarding `COc1ccc(C#C[C@@H]2C=C[C@@H](OC(C)=O)[C@@H](COC(C)=O)O2)cc1`, the growth came out at 1.04.

On to `FC(F)(F)c1cc(CCCc2ccccc2)nc(CCCc2ccccc2)c1`, for which the growth stood at 1.05.

For the compound `C=CCN1C(=O)C2=C(C(C(C)C)=NCCN2C)C1c1ccc(Br)cc1` (configuration not stated), the growth is 1.01.

For `Cc1ccc(C2NC(=O)c3c2c(CC(C)C)nn3-c2cc(C)cc(C)c2)cc1` (configuration not stated), the growth is 0.956.

Consider `C#CCCCCCCNC(=O)CC1(CNC(=O)c2cccc(/C=N/NS(=O)(=O)c3ccc(C)cc3)c2)CCCCC1`, for which the growth worked out at 0.959.

As for `COC(=O)[C@]1([C@H]2OC(=O)C=C2C)CC(=O)c2c(O)cccc2O1`, the growth amounted to 1.26.

On to `CC(=O)C1=C2C=CCCN2C(=O)NC1c1cc(F)cc(C(F)(F)F)c1` (configuration not stated), for which the growth amounted to 1.01.

`O=C1C2=C(C(c3ccccc3)=NCCN2)C(c2ccc(Br)cc2)N1Cc1ccccc1` (configuration not stated): the growth worked out at 0.985.

As to `COC(=O)c1cc2c(c3c4ccccc4n(S(=O)(=O)c4ccc(OC)cc4)c13)C(=O)N(Cc1cccc(F)c1)C2`, the growth was 1.04.

Consider `CC1CC(=O)c2c(O)cccc2O1` (configuration not stated), for which the growth turned out to be 0.963.

`COC(=O)C1=C(C)N(Cc2ccc(C(F)(F)F)cc2)C(NCc2ccc(C(F)(F)F)cc2)=NC1c1cccc(Cl)c1` (configuration not stated): the growth was 1.04.

With `CC(=O)OC[C@H]1O[C@H](C#Cc2ccsc2)C=C[C@@H]1OC(C)=O`, the growth was found to be 1.1.

With `C=CC[C@]12C[C@@]3(O[C@H](C(C)C)N=C3C[C@H](c3ccc(OC)cc3)[C@H]1C)N(CC)C2=O`, the growth turned out to be 0.954.

Regarding `COc1ccc(N2C(=O)c3[nH]nc(CC(C)C)c3C2c2ccc(F)cc2F)cc1` (configuration not stated), the growth worked out at 0.923.

For the compound `C=CCC1=CC2(OCCCO2)C(CO)=C(Br)C1=O`, the growth is 0.961.

For the compound `CC(CCCCn1c(=O)c2c(ncn2C)n(C)c1=O)OS(=O)(=O)NC(C)(C)C` (configuration not stated), the growth was 0.97.

Consider `O=C1C=CC(=O)N1c1ccccc1`, for which the growth turned out to be 0.896.

`CO[C@@H]1[C@H](O)CC[C@]2(O)CN(CCc3cccs3)[C@](C)([C@H](O)CC=C(C)C)[C@@H]12`: the growth worked out at 0.935.

In the case of `CC(C)(C)c1ccc(NS(=O)(=O)N2CCOCC2)cc1`, the growth was 0.982.

Take `CC(C)=CCc1cc(O)cc2oc3ccccc3c(=O)c12`: the growth came to 0.998.

`C=CCN1C(=O)C2=C(C(CC(C)C)=NCCN2C)C1c1ccc2c(c1)OCO2` (configuration not stated): the growth is 1.02.

Consider `COC(=O)C1=C(C)N(Cc2ccccc2)C(=S)NC1c1ccccc1Br` (configuration not stated), for which the growth was 1.1.

Turning to `COc1ccc(N2C(=O)c3[nH]nc(CC(C)C)c3C2c2cccs2)cc1` (configuration not stated), the growth was 1.08.

Turning to `Cc1nn(Cc2ccccc2)c2c1C(c1ccc(Br)cc1)NC2=O` (configuration not stated), the growth came out at 1.

Consider `C=CCC1=C(OC)C(CC=C)(Cc2ccccc2)C(=O)C(C(=O)c2ccccc2)=C1O` (configuration not stated), for which the growth is 0.967.

For the compound `CO[C@@H]1CCN(C(=O)c2c(O)cc(O)cc2NC2Cc3ccccc3C2)C1`, the growth worked out at 1.03.

For `CC(C)(C)c1ccc(C#C[C@@H]2C=C[C@@H](O)[C@@H](COC(=O)NCc3ccccc3)O2)cc1`, the growth worked out at 0.935.

In the case of `O=C1O/C(=C2/OC(=O)c3ccccc32)c2ccccc21`, the growth is 1.26.

As for `C[C@@]1(O)C(=O)[C@@]2(C)C=C[C@@H]1[C@@H]1CCO[C@@H]12`, the growth worked out at 0.906.

Consider `CC1=CC[C@@H](C)O[C@@]2(C1)C(=O)Nc1cccc(Br)c12`, for which the growth stood at 0.843.

Take `CC(C)CCCN(C(=O)OC(C)(C)C)S(=O)(=O)NC(C)(C)C`: the growth stood at 1.04.

`COc1ccc(-c2cnn3c(N)c(-c4ccc(F)cc4)cnc23)cn1`: the growth worked out at 1.06.

In the case of `CC(=O)OC[C@H]1O[C@H](C#Cc2cccc(C(F)(F)F)c2)C=C[C@@H]1OC(C)=O`, the growth turned out to be 1.04.

For the compound `c1ccc(CCCc2ccccn2)cc1`, the growth stood at 1.07.

For the compound `COc1ccc(CCN2C(=O)[C@H]3[C@H]4c5ccccc5[C@@]([C@H](OCc5ccccc5)C(F)(F)F)(c5ccccc54)[C@H]3C2=O)cc1OC`, the growth is 0.907.

For `COc1ccc(N2C(=O)C3=C(C(C)=NCCN3C)C2c2ccc3c(c2)OCO3)cc1` (configuration not stated), the growth stood at 0.977.

Regarding `CCCN1C(NCCc2cccs2)=NC(c2ccc(F)cc2)C(C(=O)OC)=C1C` (configuration not stated), the growth came out at 0.995.

On to `CC(=O)C1=C(C)NC(=S)NC1c1ccccc1` (configuration not stated), for which the growth came out at 1.03.

With `O=C(/C=C(\O)CCc1ccccc1)CCc1ccccc1`, the growth was determined as 0.993.

For the compound `Cc1ccc(S(=O)(=O)Oc2c(CC34COCCC3=Nc3ccccc34)occc2=O)cc1` (configuration not stated), the growth came out at 1.16.

As for `COCCN1C(=O)[C@H]2C[C@@]13O[C@H](c1ccc(C(F)(F)F)cc1)N=C3C[C@H](c1ccccc1)[C@H]2C`, the growth amounted to 1.01.

Take `CC(C)(C)CNS(=O)(=O)NC(C)(C)C`: the growth amounted to 1.2.

Regarding `C#CCC(C)(C)CNC(=O)CC1(CNC(=O)c2cc(/C=N/NS(=O)(=O)c3ccc(C)cc3)ccc2O)CCCCC1`, the growth was determined as 1.06.

Regarding `COc1ccc(N2C(=O)C3=C(C(CC(C)C)=NCCN3C)C2c2ccc3c(c2)OCO3)cc1` (configuration not stated), the growth was 1.01.

`CC(=O)OCC(C)(CO)CN1C(=O)c2[nH]nc(CC(C)C)c2C1c1ccc(F)cc1` (configuration not stated): the growth was 0.954.

Take `CN(C)CCn1cc(Nc2cc(O)cc(O)c2C(=O)N2CCC(F)(F)C2)cn1`: the growth was found to be 1.09.

For `COC(=O)C(C(C)=O)C1c2ccccc2C=C(C)N1C(=O)OC` (configuration not stated), the growth is 0.989.

As to `CC(=O)c1nncc2c1c1ccccc1n2C`, the growth worked out at 1.05.

In the case of `COc1ccc(N2C(=O)C3=C(C(CC(C)C)=NCCN3C)C2c2cccc(C(F)(F)F)c2)cc1` (configuration not stated), the growth was determined as 1.02.

As to `CCOC(=O)c1nnc(-c2ccccc2)c(-c2ccccc2)n1`, the growth is 1.01.

Consider `CCCCNCC[C@@]12[C@H](NC(=O)OC)[C@@H](C)[C@H](OC)[C@@]13C=CC=C[C@H]32`, for which the growth was 1.04.

With `CC(=O)OC[C@H]1O[C@H](c2ccc(Br)cc2)C=C[C@H]1OC(C)=O`, the growth is 1.07.

On to `CCc1ccccc1-n1nc2c(c1C(C)C)C(c1ccc(Br)cc1)NC2=O` (configuration not stated), for which the growth is 0.851.

`Cc1n[nH]c2c1C(c1ccc3c(c1)OCO3)N(Cc1ccccc1)C2=O` (configuration not stated): the growth was 0.947.

As to `COC(=O)C1=C(C)N(Cc2ccccc2)C(NCCc2c[nH]c3ccccc23)=N[C@H]1c1cccc(F)c1`, the growth is 0.983.

For `COCOc1cc(OC)c(OC)c2cc3oc(C)cc(=O)c3c(OC)c12`, the growth worked out at 0.998.

For `COC(=O)Cc1nnn2c1[C@@H](C)[C@@H](c1ccccc1Br)OC[C@H](C)C2`, the growth is 0.785.

For the compound `C#CCOC[C@@H](NC(=O)[C@@H]1C[C@@H](O)CN1)c1ccccc1`, the growth turned out to be 1.17.

For `COc1ccc(C2NC(=O)N3CCC=CC3=C2C(C)=O)cc1Br` (configuration not stated), the growth was 1.04.

Regarding `COc1ccc([C@@]23Oc4cc(OC)cc(OC)c4O[C@@]2(c2cccn2C)c2nc4n(c(=O)c2[C@H]3c2ccccc2)CCC4)cc1`, the growth came to 0.747.

For `COc1ccc(C2CC(c3ccccc3)=CC2=O)cc1` (configuration not stated), the growth came out at 1.07.

As to `CC(C)CCCC(C)NS(=O)(=O)NC(C)(C)C` (configuration not stated), the growth is 1.17.

For `COc1ccc(N2C(=O)C3=C(C(CC(C)C)=NCCN3)C2c2ccc3c(c2)OCO3)cc1` (configuration not stated), the growth was 0.878.

Take `COC(=O)[C@@H]1[C@@H](c2ccccc2)[C@]2(c3ccc(OC)cc3)Oc3cc(OC)cc(OC)c3[C@@]23NC(C(C)C)=N[C@@]13O`: the growth was determined as 0.998.

Turning to `CS(=O)(=O)Oc1c(CC23CCCCC2=Nc2ccc(C(F)(F)F)cc23)occc1=O` (configuration not stated), the growth turned out to be 1.22.

In the case of `COCCN1Cc2cc(C(=O)OC)c3c(c2C1=O)c1cc(OC)ccc1n3S(=O)(=O)c1ccc(F)cc1`, the growth is 0.986.

In the case of `C=CC[C@H]1CC2=C(OC)C(CC=C)(CC=C)C(=O)C(C(=O)c3ccccc3)=C2OC1(C)C`, the growth stood at 0.919.

On to `C#CCOCCOCCNC(=O)CCCn1c(-c2ccccc2)nc2c(c1=O)[C@@H](c1ccccc1)[C@]1(c3ccc(OC)cc3)Oc3cc(OC)cc(OC)c3[C@]21O`, for which the growth came to 1.02.

For `CC(=O)N[C@@H]1CCN(C(=O)c2c(O)cc(O)cc2Nc2cnn(C)c2)C1`, the growth was 1.13.

`CC(=O)C1=C2C=CCCN2C(=O)NC1c1ccc2c(c1)OCCO2` (configuration not stated): the growth was 1.04.

The values above are taken from the supplement of paper PMC10986608.
